Measured values: PMC8222394 (Nature Communications, 2021)

Molecular target: TMPRSS2-HiBiT (Homo sapiens, UniProt O15393)
Test: Cell-based proline treatment, TMPRSS2-HiBiT signal in Beas-2B cells
Conditions: replicates, listed as HFG

TMPRSS2-HiBiT, sequence (O15393 whole entry): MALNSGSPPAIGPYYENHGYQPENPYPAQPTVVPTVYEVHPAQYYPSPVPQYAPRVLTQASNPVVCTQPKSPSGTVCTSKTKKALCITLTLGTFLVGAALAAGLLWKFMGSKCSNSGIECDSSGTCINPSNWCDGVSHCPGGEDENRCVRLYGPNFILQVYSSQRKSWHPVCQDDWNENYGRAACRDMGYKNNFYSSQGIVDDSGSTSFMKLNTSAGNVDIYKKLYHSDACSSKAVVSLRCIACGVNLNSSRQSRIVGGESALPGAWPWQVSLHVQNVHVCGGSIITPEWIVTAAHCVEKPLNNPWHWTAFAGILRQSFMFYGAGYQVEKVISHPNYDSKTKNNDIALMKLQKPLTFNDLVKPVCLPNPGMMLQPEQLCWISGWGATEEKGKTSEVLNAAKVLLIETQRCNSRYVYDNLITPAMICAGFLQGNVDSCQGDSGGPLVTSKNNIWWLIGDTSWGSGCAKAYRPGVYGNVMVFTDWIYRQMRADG

Question: Which “TMPRSS2-HiBiT signal (raw values)” value (HFG 1e-6 M, 1mM Proline) does the source give for O=C(CC1NCCCC1O)Cn1cnc2cc(Br)c(Cl)cc2c1=O (stereo not drawn) [Halofuginone] here?
Answer: The value was 18412 and 14790 and 25079.

Question: What about the “TMPRSS2-HiBiT signal (raw values)” value (HFG 1e-6 M, No Proline) of the same compound?
Answer: Its value is 2348 and 2151 and 2195.

Question: And the “TMPRSS2-HiBiT signal (raw values)” value (HFG 3e-6 M, 1mM Proline)?
Answer: The value was 2822 and 2705 and 2441.

Values joined by “and” are separate entries in the source; they are usually repeats but may differ in a detail not shown here. Identical values can stand only once.
